Experimental data reported in the supplement of paper PMC4604168 (melanoma cell lines).
Some of the results follow. Most values come without repeats; read them as rough.

Columns and labels:
Assay in all cases: cell count relative to DMSO control; melanoma cells; higher = more viable cells
Conditions in all cases: library dose: low library concentration; 72 h
WM115 = test system: WM115
WM1716 = test system: WM1716
WM1745 = test system: WM1745
WM3526 = test system: WM3526
WM3619 = test system: WM3619
WM451Lu = test system: WM451Lu
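Further: cell number obtained by counting DAPI-stained nuclei in high-throughput microscope images with image analysis software, screen run in 1,536-well plates.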

| SMILES | cell count (WM115) [%] | cell count (WM1716) [%] | cell count (WM1745) [%] | cell count (WM3526) [%] | cell count (WM3619) [%] | cell count (WM451Lu) [%] |
| --- | --- | --- | --- | --- | --- | --- |
| CN(c1ncccc1CNc1nc(Nc2ccc3c(c2)CC(=O)N3)ncc1C(F)(F)F)S(C)(=O)=O + Oc1nc(-c2ccc(C(F)(F)F)cc2)nc2c1CSCC2 [XAV939] (first compound 0.08 µM, partner dose 2 µM) | 71.8 | 61.5 | 72.7 | 76 | 101 | 74.6 |
| CS(=O)(=O)c1ccc(C(=O)Nc2ccc(Cl)c(-c3ccccn3)c2)c(Cl)c1 [vismodegib] + NCC(=O)Nc1ccc(-n2nc(C(F)(F)F)cc2-c2ccc3c(ccc4ccccc43)c2)cc1 [OSU03012] (first compound 1 µM, partner dose 1 µM) | 101 | 94.5 | 116 | 58.4 | 92.8 | 60.8 |
| C=C(c1ccc(C(=O)O)cc1)c1cc2c(cc1C)C(C)(C)CCC2(C)C [Bexarotene] + Nc1ccn([C@@H]2O[C@H](CO)[C@@H](O)C2(F)F)c(=O)n1 [gemcitabine] (first compound 2 µM, partner dose 0.0004 µM) | 92 | 83 | 82.8 | 85.6 | 86.6 | 63.8 |
| CS(=O)(=O)c1ccc(C(=O)Nc2ccc(Cl)c(-c3ccccn3)c2)c(Cl)c1 [vismodegib] + O=C(CCCCCCC(=O)Nc1ccccc1)NO [vorinostat] (first compound 1 µM, partner dose 0.08 µM) | 99.9 | 102 | 102 | 82.2 | 97.6 | 69.1 |
| CN(c1ncccc1CNc1nc(Nc2ccc3c(c2)CC(=O)N3)ncc1C(F)(F)F)S(C)(=O)=O + Cn1nnc2c(C(N)=O)ncn2c1=O [temozolomide] (first compound 0.08 µM, partner dose 2 µM) | 77.2 | 70.1 | 86.3 | 88.2 | 85.6 | 76.1 |
| CN(c1ncccc1CNc1nc(Nc2ccc3c(c2)CC(=O)N3)ncc1C(F)(F)F)S(C)(=O)=O + NC(=O)Nc1cc(-c2cccc(F)c2)sc1C(=O)N[C@H]1CCCNC1 [AZD7762] (first compound 0.08 µM, partner dose 0.02 µM) | 77.9 | 81.1 | 84.9 | 106 | 65.4 | 71.2 |
| CN(c1ncccc1CNc1nc(Nc2ccc3c(c2)CC(=O)N3)ncc1C(F)(F)F)S(C)(=O)=O + CCCS(=O)(=O)Nc1ccc(F)c(C(=O)c2c[nH]c3ncc(Cl)cc23)c1F [PLX4720] (first compound 0.08 µM, partner dose 0.08 µM) | 89 | 96.2 | 84.8 | 92.2 | 96.2 | 92 |
| NC1(c2ccc(-c3nc4ccn5c(=O)[nH]nc5c4cc3-c3ccccc3)cc2)CCC1 + COCC[n+]1c2c(n(Cc3cnccn3)c1C)C(=O)c1ccccc1C2=O [YM155] (first compound 0.4 µM, partner dose 0.0004 µM) | 77.9 | 73.2 | 84.9 | 63 | 93.3 | 60 |
| NC1(c2ccc(-c3nc4ccn5c(=O)[nH]nc5c4cc3-c3ccccc3)cc2)CCC1 + CCCCCCCCCCCC1=C(O)C(=O)C=C(O)C1=O [Embelin] (first compound 0.4 µM, partner dose 1.2 µM) | 81 | 107 | 83.8 | 69.3 | 95.1 | 92.2 |
| CCCS(=O)(=O)Nc1ccc(F)c(C(=O)c2c[nH]c3ncc(Cl)cc23)c1F + COc1cc(N2CCC(N3CCN(C)CC3)CC2)ccc1Nc1ncc(Cl)c(Nc2ccccc2S(=O)(=O)C(C)C)n1 [NVP-TAE684] (first compound 0.08 µM, partner dose 0.08 µM) | 95.3 | 111 | 99.6 | 68.6 | 107 | 100 |
| CCCS(=O)(=O)Nc1ccc(F)c(C(=O)c2c[nH]c3ncc(Cl)cc23)c1F + CCCCCCCCCCCC1=C(O)C(=O)C=C(O)C1=O [Embelin] (first compound 0.08 µM, partner dose 1.2 µM) | 101 | 108 | 96 | 78.8 | 101 | 132 |
